Measurements: publication PMC5489516
No constants are given. Whether binding was seen depends on the method and setting. Binding seen in cells or lysates may run through a third protein. Some results given as binding are weak or reduced against the parent protein; the word gives no strength. For part of these data: Tags and fused reporters may be left off the sequences shown.

Sequences of proteins named here, by UniProt entry; tags and fusion partners are left off.
UniProt O15169: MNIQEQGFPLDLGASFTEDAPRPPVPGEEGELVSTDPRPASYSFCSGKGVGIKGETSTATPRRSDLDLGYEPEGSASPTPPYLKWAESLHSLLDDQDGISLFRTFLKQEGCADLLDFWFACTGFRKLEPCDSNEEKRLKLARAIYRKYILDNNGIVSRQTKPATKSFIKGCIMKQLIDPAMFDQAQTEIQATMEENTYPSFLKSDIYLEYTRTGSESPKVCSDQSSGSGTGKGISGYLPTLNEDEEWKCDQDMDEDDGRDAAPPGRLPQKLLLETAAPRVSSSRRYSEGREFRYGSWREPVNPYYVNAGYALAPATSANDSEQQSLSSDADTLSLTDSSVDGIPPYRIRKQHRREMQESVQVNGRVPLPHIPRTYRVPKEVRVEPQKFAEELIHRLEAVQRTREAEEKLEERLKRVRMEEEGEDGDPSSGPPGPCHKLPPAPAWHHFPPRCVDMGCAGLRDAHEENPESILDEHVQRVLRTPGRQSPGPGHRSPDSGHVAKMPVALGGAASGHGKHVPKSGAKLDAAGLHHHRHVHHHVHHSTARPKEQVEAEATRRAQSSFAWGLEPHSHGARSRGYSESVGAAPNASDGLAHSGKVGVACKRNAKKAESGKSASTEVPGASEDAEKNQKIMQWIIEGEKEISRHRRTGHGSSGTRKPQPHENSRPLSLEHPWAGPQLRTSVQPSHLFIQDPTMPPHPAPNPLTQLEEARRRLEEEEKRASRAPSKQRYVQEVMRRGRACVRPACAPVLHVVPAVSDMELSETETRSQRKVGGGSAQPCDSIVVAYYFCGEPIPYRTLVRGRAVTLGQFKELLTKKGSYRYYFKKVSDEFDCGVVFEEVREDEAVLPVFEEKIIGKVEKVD
UniProt O95271: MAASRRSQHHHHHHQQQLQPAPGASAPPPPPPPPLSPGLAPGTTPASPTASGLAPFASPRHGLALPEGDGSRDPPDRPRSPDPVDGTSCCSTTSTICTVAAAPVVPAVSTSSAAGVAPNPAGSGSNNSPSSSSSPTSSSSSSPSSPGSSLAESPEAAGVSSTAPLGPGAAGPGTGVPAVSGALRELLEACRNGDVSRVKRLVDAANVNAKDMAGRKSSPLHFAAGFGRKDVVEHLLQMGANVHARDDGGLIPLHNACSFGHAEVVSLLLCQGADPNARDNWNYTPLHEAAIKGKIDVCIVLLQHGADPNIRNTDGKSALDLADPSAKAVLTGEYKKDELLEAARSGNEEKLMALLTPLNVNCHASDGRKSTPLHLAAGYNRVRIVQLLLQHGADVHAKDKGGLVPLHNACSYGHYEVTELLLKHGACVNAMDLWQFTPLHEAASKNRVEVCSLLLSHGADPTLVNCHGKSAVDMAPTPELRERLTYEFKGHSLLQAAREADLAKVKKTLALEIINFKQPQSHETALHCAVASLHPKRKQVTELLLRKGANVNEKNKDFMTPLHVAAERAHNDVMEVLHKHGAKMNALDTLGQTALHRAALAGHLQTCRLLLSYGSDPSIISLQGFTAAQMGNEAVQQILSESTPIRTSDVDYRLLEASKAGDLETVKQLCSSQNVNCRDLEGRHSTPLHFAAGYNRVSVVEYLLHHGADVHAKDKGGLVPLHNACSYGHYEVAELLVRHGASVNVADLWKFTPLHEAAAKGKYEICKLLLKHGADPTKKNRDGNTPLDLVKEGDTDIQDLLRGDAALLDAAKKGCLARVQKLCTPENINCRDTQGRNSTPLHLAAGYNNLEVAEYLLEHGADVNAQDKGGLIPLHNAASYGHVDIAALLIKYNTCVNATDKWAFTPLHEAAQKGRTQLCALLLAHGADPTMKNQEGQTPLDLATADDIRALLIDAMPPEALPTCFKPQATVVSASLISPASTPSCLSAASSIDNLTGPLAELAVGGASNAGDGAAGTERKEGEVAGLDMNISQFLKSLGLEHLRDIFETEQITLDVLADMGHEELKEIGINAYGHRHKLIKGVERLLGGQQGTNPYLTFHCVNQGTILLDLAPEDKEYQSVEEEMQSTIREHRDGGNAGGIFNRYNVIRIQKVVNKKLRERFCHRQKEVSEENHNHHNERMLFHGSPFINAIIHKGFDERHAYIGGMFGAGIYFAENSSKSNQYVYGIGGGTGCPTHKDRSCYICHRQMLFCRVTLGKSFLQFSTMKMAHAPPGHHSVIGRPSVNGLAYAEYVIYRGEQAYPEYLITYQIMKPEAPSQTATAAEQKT
UniProt P35222: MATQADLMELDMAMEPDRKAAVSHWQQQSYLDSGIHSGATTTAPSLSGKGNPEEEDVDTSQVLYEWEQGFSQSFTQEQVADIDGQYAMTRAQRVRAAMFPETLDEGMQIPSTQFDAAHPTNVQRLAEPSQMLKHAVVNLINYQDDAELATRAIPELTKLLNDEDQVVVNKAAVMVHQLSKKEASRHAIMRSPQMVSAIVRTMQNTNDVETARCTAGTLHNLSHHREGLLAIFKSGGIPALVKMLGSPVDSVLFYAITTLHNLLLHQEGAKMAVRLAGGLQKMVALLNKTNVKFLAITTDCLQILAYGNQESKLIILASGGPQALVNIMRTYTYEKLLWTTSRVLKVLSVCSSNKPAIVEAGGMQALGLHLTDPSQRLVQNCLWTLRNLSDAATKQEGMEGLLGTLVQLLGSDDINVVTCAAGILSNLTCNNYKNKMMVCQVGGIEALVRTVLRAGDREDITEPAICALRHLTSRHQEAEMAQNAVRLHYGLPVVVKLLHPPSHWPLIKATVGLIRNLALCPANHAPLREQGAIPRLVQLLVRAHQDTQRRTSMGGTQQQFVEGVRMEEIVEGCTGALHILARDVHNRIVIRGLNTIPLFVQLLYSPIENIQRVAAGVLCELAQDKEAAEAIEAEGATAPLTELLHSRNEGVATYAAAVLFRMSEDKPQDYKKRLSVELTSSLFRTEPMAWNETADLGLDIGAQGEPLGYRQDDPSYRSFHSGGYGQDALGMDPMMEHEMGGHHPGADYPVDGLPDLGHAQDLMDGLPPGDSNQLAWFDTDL

Experiments:
[1] = biological target: Axis inhibition protein 1 (Axin1) (human (endogenous in SW480)) (UniProt O15169); test: co-IP; SW480 lysate (cells transfected with control or PrxII-1 siRNA; BIO for 1 h before lysis in some samples), IP with anti-Axin1 antibody or control IgG, immunoblot
[2] = biological target: Flag-TNKS1, full-length tankyrase-1 (1–1327) (human) (UniProt O95271); test: co-IP; additional co-IP experiment with the PrxI-T111R mutant and TNKS1, told only in the discussion, no figure
[3] = biological target: Flag-TNKS1, full-length tankyrase-1 (1–1327) (human) (UniProt O95271); test: co-IP; HEK293 cells co-transfected with Flag-TNKS1 (whole or truncated) and Myc-tagged PrxII (WT or Gly mutants), IP with anti-M2 (Flag) antibody, blot with anti-Myc

binding [3] | Molecule | other results
– | phospho-β-catenin (from UniProt P35222 1-781) | binding [1]: binds
– | PrxI-T111R mutant (enzyme, UniProt Q06830 1-199) MSSGNAKIGHPAPNFKATAVMPDGQFKDISLSDYKGKYVVFFFYPLDFTFVCPTEIIAFSDRAEEFKKLNCQVIGASVDSHFCHLAWVNTPKKQGGLGPMNIPLVSDPKRRIAQDYGVLKADEGISFRGLFIIDDKGILRQITVNDLPVGRSVDETLRLVQAFQFTDKHGEVCPAGWKPGSDTIKPDVQKSKEYFSKQK | binding [2]: no binding
binds | Myc-tagged PrxII WT (PrxII-Myc) (enzyme, UniProt P32119 2-198) ASGNARIGKPAPDFKATAVVDGAFKEVKLSDYKGKYVVLFFYPLDFTFVCPTEIIAFSNRAEDFRKLGCEVLGVSVDSQFTHLAWINTPRKEGGLGPLNIPLLADVTRRLSEDYGVLKTDEGIAYRGLFIIDGKGVLRQITVNDLPVGRSVDEALRLVQAFQYTDEHGEVCPAGWKPGSDTIKPNVDDSKEYFSKHN | –
no binding | Myc-tagged PrxII G116V mutant (enzyme, UniProt P32119 2-198) ASGNARIGKPAPDFKATAVVDGAFKEVKLSDYKGKYVVLFFYPLDFTFVCPTEIIAFSNRAEDFRKLGCEVLGVSVDSQFTHLAWINTPRKEGGLGPLNIPLLADVTRRLSEDYVVLKTDEGIAYRGLFIIDGKGVLRQITVNDLPVGRSVDEALRLVQAFQYTDEHGEVCPAGWKPGSDTIKPNVDDSKEYFSKHN | –
binds | Myc-tagged PrxII G23V mutant (enzyme, UniProt P32119 2-198) ASGNARIGKPAPDFKATAVVDVAFKEVKLSDYKGKYVVLFFYPLDFTFVCPTEIIAFSNRAEDFRKLGCEVLGVSVDSQFTHLAWINTPRKEGGLGPLNIPLLADVTRRLSEDYGVLKTDEGIAYRGLFIIDGKGVLRQITVNDLPVGRSVDEALRLVQAFQYTDEHGEVCPAGWKPGSDTIKPNVDDSKEYFSKHN | –
binds | Myc-tagged PrxII G9V mutant (enzyme, UniProt P32119 2-198) ASGNARIVKPAPDFKATAVVDGAFKEVKLSDYKGKYVVLFFYPLDFTFVCPTEIIAFSNRAEDFRKLGCEVLGVSVDSQFTHLAWINTPRKEGGLGPLNIPLLADVTRRLSEDYGVLKTDEGIAYRGLFIIDGKGVLRQITVNDLPVGRSVDEALRLVQAFQYTDEHGEVCPAGWKPGSDTIKPNVDDSKEYFSKHN | –
